Sequences and labels used below:
B1: CPEB3 Ribozyme (parent)
chain: UAACAGGGGGCCACAGCAGAAGCGUUCACGUCGCAGCCCCUGUCAGAUUCUGGUGAAUCUGCGAAUUCUGCUGUAUAUCUC

The source gives no read counts; variants with many changes may rest on few reads.

The data set covers variants of B1. Kind of data set: self-cleavage, relative activity (ratio to wild type); higher = more cleavage; in vitro, sequencing. In a few lines: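 For each CPEB3 ribozyme variant, relative activity is its cleaved/total read fraction divided by the unmutated ribozyme's. Barcoded error-prone PCR libraries were transcribed by T7 RNA polymerase (5 hours, 37°C) and held in DNase I for 15 min before an EDTA stop, with cleavage occurring throughout. Template-switching reverse transcription and Illumina sequencing were used to read the RNAs. A 5-read minimum applied, and results are the mean of three batches.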
Take C12U A15G C81U: the self-cleavage stood at 0.94.
Turning to C12U A13C U51A A56U A65G U78G, the self-cleavage came out at 0.58.
With C12U U43A A56G the figure was 1.13; with C12A U25A A45U A47G C62U, 0.23; with A13C A18G G53C G61C, 0.26.
The result for C12G C27A U43A C50A A64G reads 0.14.
Consider A13C A15G A64G U80C, for which the self-cleavage was 0.57.
Take C12U U25A A56G: the self-cleavage was found to be 0.06.
On to A13G A56G G63C U72A, for which the self-cleavage worked out at 0.26.
Take C12A A13G C40U U78C: the self-cleavage turned out to be 0.28.
For C12U A28G C32U U49C A77G, the self-cleavage worked out at 0.04.
Take C12U U41C U66G U78A: the self-cleavage came out at 1.13.
With C12U A15G U43A U69A the figure was 0.2; with C12U U31A U41A U67C C71U, 0.06.
For the variant C12G A21U A45U U66C U78C, the self-cleavage stood at 0.04.
With A13G A20U U41C A56U the figure was 0.12; with C12U A15G U48C U58C U72G, 0.14.
As for A13G A18U A35G C71U, the self-cleavage turned out to be 0.08.
The result for A13G A21C U31G A35U reads 0.53; that for C12U A35U U48A U51C, 0.31; that for A13G A20U A35G A47U A57G, 0.18.
With A13G A45G G52U A57G U60A the figure was 0.26; with A13G A20G G22U U43A U54A, 0.08; with C12A A13U A20G A21G U51C A57G U60C, 0.11.
Consider A13G A57G G63A, for which the self-cleavage was determined as 0.41.
The result for C12U A15C A18U A20U A64G A75G U80C reads 0.07.
The result for C11U U60A U78C reads 0.07.
For C12U U41A C50A, the self-cleavage was 0.25.
With A13G A28G C32A U54A, the self-cleavage stood at 0.12.
On to A13G A18G U49C U72C, for which the self-cleavage was determined as 0.09.
In the case of A13C G52U U58C, the self-cleavage stood at 0.41.
As to C12U A15G G24C, the self-cleavage turned out to be 0.23.
Take C12A A13G A18U U66C: the self-cleavage amounted to 0.21.
Regarding C12U A21G U41A A64U, the self-cleavage was found to be 0.24.
In the case of A13G C17G A28G U31G A65G, the self-cleavage was 0.05.
With C12A U25C A45G U48C A64U the figure was 0.11; with C12G A15C G24U U25C U31C A56G U80A, 0.04; with A13G A15C A28G C34U U74A A75G, 0.05.
With C12A U25C U31C G61A the figure was 0.13; with A13C A15C A28G U31C A64U U74C, 0.06; with C12A A28U U31C G36C U43C G61A, 0.05.
For the variant C12U A15G A18C G46A, the self-cleavage is 0.28.
With A13G A18G U41C the figure was 0.29.
In the case of C12A U51A U67C, the self-cleavage is 0.22.
Consider A13G A28U U74A A77G, for which the self-cleavage amounted to 1.1.
As for C12A A13G A15G U72A, the self-cleavage is 0.12.
A13G A57C A65U: the self-cleavage amounted to 0.45.
As to C12U A15G G30A, the self-cleavage amounted to 0.18.
As to A13G C23G U51A U67C U74C, the self-cleavage is 0.07.
Consider A13C U48A U78A, for which the self-cleavage stood at 0.33.
With A13G A18G A20G U41C U80C the figure was 0.18; with A13G A28G C39U U54C A77G, 0.31.
For the variant C12U U26C A28G G36U U60A, the self-cleavage is 0.13.
With A13G A20U U25C G33U A35G U51C G70A the figure was 0.05; with C12U A28G A35G U41C A45C G61C U66C, 0.06.
With A13G A20G U49C U78C the figure was 0.51; with A13G A15U U31C C38U, 0.26.
As for A13C A15G A45U A56U, the self-cleavage came out at 0.19.
A13G A18U U54C U67C U69C: the self-cleavage was 0.2.
With A13G A64G A75U the figure was 0.39; with A13G C23U C40U C44A C50G U69A U76C, 0.04; with A13G A56G A65G, 0.15.
C12U U26C A35G C38A U48C A57G U66C: the self-cleavage was 0.08.
Turning to A13G A18C A20G C34U A65G, the self-cleavage came out at 0.04.
The result for A13G A35U A47G A77G reads 0.69; that for A13C A56C A65G, 0.12; that for A13G A28G C40U A45G U60A, 0.1.
With A13G C23G A28C the figure was 0.27; with A13G A18G A57U U72C, 0.11; with A13C U41A U49C, 0.16.
The result for A13G A15C G33A U41C A56U U72C reads 0.05.
A13C A15U A28G U41G A56U A64G U80C: the self-cleavage was 0.08.
As to C12U U41A C68U, the self-cleavage was found to be 0.21.
Consider C12U A18G G46A U60C, for which the self-cleavage amounted to 0.12.
The result for A13G A21G A45U reads 0.37.
The result for A13G A45U A56G U69A reads 0.09; that for C12U A13G A20U A28U U31C U43G U60C, 0.05; that for A13G A35C U78C, 0.7.
On to A13G A15C G22A, for which the self-cleavage is 0.47.
The result for C12U A15U U54A U74C reads 1.24; that for C12A A13G U25A, 0.43.
Consider A13G A28U A35U U80C, for which the self-cleavage turned out to be 0.33.
The result for C12U A18G U26C A28U A57G U74C U80G reads 0.05.

The record behind these values is the RNAGym collection of RNA variant scans (doi:10.1093/nar/gkz1192).
